About 2,200 (0.71%) of roughly 310,000 compounds showed an effect of 50% or more. Effects have a minus sign here. The list shows a part of the results.
molecular target: human ether-à-go-go-related gene (hERG) potassium channel (human, UniProt Q12809); assay: primary screen, population patch clamp on CHO cells stably expressing hERG
Sequence (Q12809 whole entry, looked up): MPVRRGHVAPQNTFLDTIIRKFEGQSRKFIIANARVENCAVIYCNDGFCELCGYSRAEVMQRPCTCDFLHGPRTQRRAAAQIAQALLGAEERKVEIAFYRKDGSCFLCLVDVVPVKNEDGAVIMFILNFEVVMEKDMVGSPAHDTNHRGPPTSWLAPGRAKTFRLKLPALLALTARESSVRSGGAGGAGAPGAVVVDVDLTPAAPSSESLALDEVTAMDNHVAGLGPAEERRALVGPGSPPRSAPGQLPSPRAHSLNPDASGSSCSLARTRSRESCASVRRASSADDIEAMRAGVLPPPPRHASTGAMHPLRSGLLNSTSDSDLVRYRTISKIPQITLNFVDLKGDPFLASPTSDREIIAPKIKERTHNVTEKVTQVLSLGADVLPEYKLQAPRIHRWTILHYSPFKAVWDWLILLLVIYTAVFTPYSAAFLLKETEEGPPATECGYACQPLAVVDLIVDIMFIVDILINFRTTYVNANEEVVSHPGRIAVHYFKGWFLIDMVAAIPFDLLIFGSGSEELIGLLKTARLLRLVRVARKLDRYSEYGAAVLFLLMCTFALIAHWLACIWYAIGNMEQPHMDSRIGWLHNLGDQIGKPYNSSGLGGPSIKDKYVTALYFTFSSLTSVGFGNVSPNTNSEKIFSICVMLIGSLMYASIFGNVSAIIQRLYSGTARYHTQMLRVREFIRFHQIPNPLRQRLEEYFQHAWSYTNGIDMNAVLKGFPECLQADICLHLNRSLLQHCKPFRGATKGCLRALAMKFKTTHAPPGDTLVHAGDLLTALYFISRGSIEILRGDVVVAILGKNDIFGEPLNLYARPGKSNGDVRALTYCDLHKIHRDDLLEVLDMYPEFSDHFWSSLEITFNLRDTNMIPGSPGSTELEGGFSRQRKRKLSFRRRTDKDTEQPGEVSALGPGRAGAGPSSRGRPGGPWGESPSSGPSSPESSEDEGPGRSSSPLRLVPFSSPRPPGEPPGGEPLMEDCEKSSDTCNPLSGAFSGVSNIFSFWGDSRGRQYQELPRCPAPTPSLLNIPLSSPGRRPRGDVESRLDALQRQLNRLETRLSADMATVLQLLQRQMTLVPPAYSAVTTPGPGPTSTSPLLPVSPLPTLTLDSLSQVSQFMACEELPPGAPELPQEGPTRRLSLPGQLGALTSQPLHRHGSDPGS

Row | Structure (SMILES) | hERG current change (%, negative = inhibition) at 1uM [%]
1 | CCn1ncc(Br)c1C(=O)Nc1ccc2c(c1)OCCO2 | 14.5
2 | CC(C)C(NS(=O)(=O)c1ccccc1)C(=O)OCc1cc([N+](=O)[O-])cc2c1OCOC2 (stereo not shown) | 14.7
3 | O=C(Oc1cccc(-c2cnc3ccccc3n2)c1)c1ccco1 | 8.84
4 | CC(CN1CCOCC1)(NS(=O)(=O)c1ccccc1)c1ccccc1 (stereo not shown) | 5.77
5 | Cc1cccc(C)c1NC(=O)COC(=O)C1C2CC3OC(=O)C1C3C2 (stereo not shown) | 17.7
6 | COCCCNC(=O)c1ccc(N2CCOCC2)c(NS(=O)(=O)c2ccc(OC)cc2)c1 | 1.03
7 | Cc1cc(NC(=O)CSc2nnc(CNC(=O)c3ccc(F)cc3)o2)no1 | 3.73
8 | CCN(CC)CCNC(=O)Cc1c(C(=O)O)n(CC)c2ccccc12 | 11.8
9 | Cc1noc(C)c1COc1ncnc2ccccc12 | 16.5
10 | COC(=O)C1C(=O)C(C(=O)c2ccc([N+](=O)[O-])cc2)C(=O)CC1(C)C (stereo not shown) | 14.4
11 | CCc1sc(C(=O)N2CCc3ccccc32)cc1C | 14.1
12 | COc1ccc(CCNC(=O)CN(CCc2ccccc2)S(C)(=O)=O)cc1 | 15.4
13 | CCSc1ccccc1C(=O)NCc1cccnc1 | 11.8
14 | Cc1ccc2ncnc(Nc3ccccc3)c2c1 | 7.15
15 | N#Cc1ccc(CN2CCN(C(=O)c3cc(Cl)c4c(c3)OCCO4)CC2)cc1 | -37.2
16 | CCCCC(=O)Nc1cc(OCC)c(NC(=O)c2ccccc2[N+](=O)[O-])cc1OCC | 13.2
17 | COC(=O)c1cn[nH]c1NC(=S)Nc1ccccc1C | -2.55
18 | CC1=CC(C)(C)Nc2ccc(OC(=O)C(Cc3ccccc3)N3C(=O)c4ccccc4C3=O)cc21 (stereo not shown) | 3.52
19 | O=C(NC1CC2CCC(C1)N2Cc1ccccc1)c1ccccc1Cl (stereo not shown) | -10
20 | O=[N+]([O-])c1nn(-c2ccccc2)n(O)c1=NC1CCN(Cc2ccccc2)CC1 | -16
21 | CC1CN(S(=O)(=O)c2ccc(F)cc2)C(C)N1C(=O)N1CCOCC1 (stereo not shown) | 2.56
22 | CC1CN(C(=O)c2ccccc2NS(=O)(=O)c2cccc([N+](=O)[O-])c2)CC(C)O1 (stereo not shown) | 20.8

Row | Structure (SMILES) | hERG current change (%, negative = inhibition) at 1uM [%]
23 | Cc1ccc(C2C(C(=O)c3cccs3)=C(O)C(=O)N2c2cccc(C)n2)cc1 (stereo not shown) | 7.57
24 | COCCNC(=O)C(C)OC(=O)c1cc2sccc2n1C (stereo not shown) | 6.79
25 | COc1cc(NC(=O)C2CCCCC2)c(OC)cc1NC(=O)c1ccco1 | -3.2
26 | CC(=O)N1CCN(c2ccc(NCc3ccc4c(c3)OCO4)cc2)CC1 | 10.9
27 | O=C(NN1C(=O)C2C3C=CC(O3)C2C1=O)c1cccc(O)c1 (stereo not shown) | 12.8
28 | CCN=C1S/C(=C/c2ccc(-c3ccc(F)cc3)o2)C(=O)N1CC | 15.7
29 | CCOC(=O)c1sc(NC(=O)C2CCCCC2)nc1C | 11.4
30 | CCOC(=O)C1=C(CC)OC(N)=C(C#N)C1c1ccc(NC(C)=O)cc1 (stereo not shown) | 5.16
31 | O=C(CSc1ccccc1)Nc1cc(Cl)ccc1Oc1ccccc1 | -1.26
32 | Nc1cccc2c1C(=O)N(C(=O)c1ccco1)C2=O | 5.73
33 | COc1ccc(NC(=O)CN2CCN(CC(=O)Nc3ccccc3Cl)CC2)cc1 | -79.3
34 | Cc1ccc(NC(=O)CNC(=O)c2sc3ccccc3c2Cl)nc1 | 20.1
35 | O=C1NCCNC1(c1c[nH]c2ccccc12)C(F)(F)F (stereo not shown) | 7.04
36 | CCc1cc(CNC(=O)c2ccc(OC3CCN(CCc4ccccc4)CC3)cc2)on1 | -54.4
37 | COc1ccc(C2/C(=C(/O)c3ccccc3)C(=O)C(=O)N2C)c(OC)c1 (stereo not shown) | 18.1
38 | CC(C)c1ccc(Nc2nnc(SC3CCOC3=O)s2)cc1 (stereo not shown) | 10.6
39 | CC(C)c1ccc(/C=C2\SC(=S)N(CC(=O)NCCCN3CCOCC3)C2=O)cc1 | 21.1
40 | O=C(c1ccc(F)c(S(=O)(=O)N2CCOCC2)c1)N1CCN(c2ccc(F)cc2)CC1 | -22.9
41 | Nn1c(Cc2ccccc2)nc2sc3c(c2c1=O)CCC3 | -3.44
42 | CCOC(=O)c1c(-c2ccccc2)csc1NC(=O)C(C)NCCCN1CCOCC1.O=C(O)C(=O)O (stereo not shown) | 9.26
43 | COCC1CCN(C(=O)c2cc(COc3ccc(-n4cncn4)cc3)on2)CC1 | -17.9
44 | Cc1ccc2nc3nc(NCC4CCCO4)c(C(=O)NC4CCCC4)cc3c(=O)n2c1 (stereo not shown) | -83.8

Row | Structure (SMILES) | hERG current change (%, negative = inhibition) at 1uM [%]
45 | CCOC(=O)c1c(CN2CCOCC2)oc2ccc(OC)cc12 | 5.97
46 | COc1ccc(CNC(=O)N2CCN(S(=O)(=O)c3ccccc3)CC2)cc1 | 11
47 | O=C(NNC(=O)C1CCCO1)c1ccc(Cl)cc1 (stereo not shown) | 7.89
48 | O=c1[nH]n(-c2ccc(F)cc2)c2ncccc12 | 7.16
49 | Nc1ccc2oc3ncccc3c(=O)c2c1 | 10.9
50 | COc1ccccc1OC(C)C(=O)N(Cc1ccco1)C1CCS(=O)(=O)C1 (stereo not shown) | -0.304
51 | O=C(Nc1ccc(Br)cc1)C1CCN(C(=O)c2ccco2)CC1 | 8.24
52 | O=C1CCCN1CN(C(=O)c1ccccc1)c1ccccc1 | -16.4
53 | NNC(=O)c1ccc(CSc2nc3ccccc3s2)cc1 | 27.1
54 | COc1ccc([N+](=O)[O-])cc1NC(=O)c1ccc(Br)s1 | 0.25
55 | Cc1ccc(CC(=O)Nc2nc3c(s2)CCCC3)cc1 | 13.5
56 | O=C(O)c1ccc(/C=N/NC(=O)c2cc(-c3ccc4c5c(cccc35)CC4)n[nH]2)cc1 | 11.6
57 | O=C(O)CCc1ccc(-c2ccc(Br)cc2)n1CC(=O)O | 4.02
58 | Cc1ccc(C(=O)OCC(=O)NN2C(=O)NC3(CCC(C)CC3)C2=O)cc1 (stereo not shown) | 8.93
59 | CCC(=O)N1CCc2cc(Br)cc(S(=O)(=O)N3CCCC(C(=O)O)C3)c21 (stereo not shown) | 2.46
60 | CC(=O)Nc1ccc(S(=O)(=O)NNC(=O)c2ccc(S(=O)(=O)N3CCCCC3)cc2)cc1 | 4.57
61 | O=S(=O)(Cc1ccccc1Cl)Nc1ccccn1 | 4.37
62 | Cc1ccccc1NC1(C#N)CCCCC1 | 5.11
63 | CCOC(=O)c1c(NC(=O)COc2cccc3c2CCN(Cc2ccc(F)cc2)C3=O)sc2c1CCC2 | 10.2
64 | COc1ccc(-[n+]2c(-c3ccccc3)cc(-c3ccccc3)cc2-c2ccccc2)cc1.[O-][Cl+3]([O-])([O-])[O-] | -29.2
65 | CCN(C(=O)c1c(OC)cccc1OC)c1nnc(-c2cccnc2)s1 | 6.46
66 | COc1ccc(Cl)c(OC)c1C(=O)NC(=O)Nc1c(F)cc(F)cc1F | 11.3

Row | Structure (SMILES) | hERG current change (%, negative = inhibition) at 1uM [%]
67 | Cc1ncc(S(=O)(=O)C(C)(C)C)c(N)n1 | 11.8
68 | CCN(Cc1ccncc1)C(=O)CC1C(=O)NCCN1Cc1ccc(F)c(F)c1 (stereo not shown) | 4.94
69 | CC(=O)c1ccc(N2CCN(C(=O)Cc3n[nH]c(=O)c4ccccc34)CC2)cc1 | 6.9
70 | COc1ccc2c(C(=O)c3ccc(C)cc3)n(Cc3ccc(C(N)=O)cc3)[n+]([O-])c2c1 | 5.95
71 | COc1ccc(N2CCN(C(=O)c3cc4c(s3)-c3ccccc3S(=O)(=O)C4)CC2)cc1 | 6.04
72 | O=C(NNc1ccc([N+](=O)[O-])cc1[N+](=O)[O-])C1C2CCCCC21 (stereo not shown) | 1.83
73 | CCCCCCCc1nn2c(=O)cc(O)nc2s1 | 4.86
74 | Cl.NCCc1ccc(O)c(O)c1 | 16.6
75 | Cl.OC1(c2cccc(C(F)(F)F)c2)CCNCC1 | 8.98
76 | O=C(NCc1csc(-c2cccs2)n1)C1CCC1 | 5.19
77 | COC(=O)CSc1nnc(CNS(=O)(=O)c2ccc(Cl)cc2)n1C | 13.3
78 | O=C(O)CSc1nnnn1C1CCCCC1 | 11.4
79 | COc1cccc(CNc2ncnc3cc(OC)c(OC)cc23)c1 | 5.3
80 | CCOC(=O)C1CCCN(C(=O)C2CCN(S(=O)(=O)c3c(C)noc3/C=C/c3ccccc3F)CC2)C1 (stereo not shown) | 19.4
81 | COc1ccc(C2c3[nH]c4ccccc4c3C[C@H]3C(=O)N(c4ccccc4C(=O)N4CCC[C@H]4C(=O)O)C(=O)N23)cc1 (stereo partly shown) | 11.1
82 | O=C(Nc1cccc(S(=O)(=O)C(F)F)c1)c1ccc(Cl)c(S(=O)(=O)N2CCOCC2)c1 | 2.01
83 | CCOc1ccccc1N1CCN(CC(=O)Nc2ccnn2C2CCCC2)CC1 | -14.1
84 | Cc1oc(C(C)(C)C)cc1C(=O)Nc1cccc(/C=C\C(=O)O)c1 | 12.2
85 | CCOc1cccc(Nc2cc3n(c(=O)n2)CCc2cc(OC)c(OC)cc2-3)c1 | -7.11
86 | O=C(NNC(=O)c1ccc2c(=O)n3c(nc2c1)CCC3)c1ccc(F)cc1 | 11.2
87 | O=C1N=C(N2CCOCC2)S/C1=C\c1ccncc1 | 10.8
88 | C=C(C)c1cccc(C(C)(C)NC(=O)NCC2CCCO2)c1 (stereo not shown) | 6.08
